15 molecules from patent publication EP4711384A1 (WIO Bioscience Co., Ltd., dated 2026) can be followed below.

To fix the notation:
T1: human IL-18R1 and IL-18RAP on IL-18 Reporter HEK 293 Cells (human, UniProt Q13478 19-541; O95256 20-599)
T1 sequence (looked up) 1: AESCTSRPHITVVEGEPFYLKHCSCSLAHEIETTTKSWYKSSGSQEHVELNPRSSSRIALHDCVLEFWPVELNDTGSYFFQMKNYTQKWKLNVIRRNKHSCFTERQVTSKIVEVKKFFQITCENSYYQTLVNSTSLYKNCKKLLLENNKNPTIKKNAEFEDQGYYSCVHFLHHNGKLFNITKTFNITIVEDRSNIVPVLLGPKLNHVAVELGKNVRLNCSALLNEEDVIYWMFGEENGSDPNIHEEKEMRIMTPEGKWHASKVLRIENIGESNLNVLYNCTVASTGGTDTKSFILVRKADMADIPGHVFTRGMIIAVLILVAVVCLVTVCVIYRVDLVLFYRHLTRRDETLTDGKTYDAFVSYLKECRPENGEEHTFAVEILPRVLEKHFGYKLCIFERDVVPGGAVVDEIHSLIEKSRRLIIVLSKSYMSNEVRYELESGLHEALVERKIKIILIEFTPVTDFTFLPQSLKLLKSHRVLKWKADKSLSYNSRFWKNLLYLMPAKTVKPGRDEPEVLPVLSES
T1 sequence (looked up) 2: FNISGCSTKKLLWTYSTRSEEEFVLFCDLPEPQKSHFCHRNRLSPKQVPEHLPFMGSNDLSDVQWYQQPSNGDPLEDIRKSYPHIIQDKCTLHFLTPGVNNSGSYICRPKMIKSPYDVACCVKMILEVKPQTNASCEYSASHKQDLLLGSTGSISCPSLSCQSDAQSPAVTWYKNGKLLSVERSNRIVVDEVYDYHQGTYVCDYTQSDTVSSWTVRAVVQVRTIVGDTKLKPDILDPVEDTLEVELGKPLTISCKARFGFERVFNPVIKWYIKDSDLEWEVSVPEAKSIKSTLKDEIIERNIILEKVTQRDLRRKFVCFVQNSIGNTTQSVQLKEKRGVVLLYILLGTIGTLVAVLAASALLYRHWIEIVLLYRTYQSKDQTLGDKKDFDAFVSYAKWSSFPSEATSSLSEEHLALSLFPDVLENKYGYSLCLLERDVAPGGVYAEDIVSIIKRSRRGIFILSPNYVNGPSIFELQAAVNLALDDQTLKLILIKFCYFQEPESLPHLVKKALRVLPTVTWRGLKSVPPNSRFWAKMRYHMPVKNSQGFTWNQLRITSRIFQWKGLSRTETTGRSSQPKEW

T2: human IL-18R1 ECD-His (human, UniProt Q13478 22-329)
T2 sequence: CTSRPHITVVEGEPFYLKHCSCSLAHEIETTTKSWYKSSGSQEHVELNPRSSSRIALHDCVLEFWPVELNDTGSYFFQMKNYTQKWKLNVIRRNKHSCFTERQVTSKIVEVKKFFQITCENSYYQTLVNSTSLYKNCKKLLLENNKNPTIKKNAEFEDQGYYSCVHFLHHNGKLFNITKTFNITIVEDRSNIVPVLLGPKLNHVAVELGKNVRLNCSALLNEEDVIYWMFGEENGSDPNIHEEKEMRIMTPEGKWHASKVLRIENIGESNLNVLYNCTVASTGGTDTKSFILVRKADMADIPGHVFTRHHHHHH

T3: human IL-18RAP ECD-His (human, UniProt O95256 20-356)
T3 sequence: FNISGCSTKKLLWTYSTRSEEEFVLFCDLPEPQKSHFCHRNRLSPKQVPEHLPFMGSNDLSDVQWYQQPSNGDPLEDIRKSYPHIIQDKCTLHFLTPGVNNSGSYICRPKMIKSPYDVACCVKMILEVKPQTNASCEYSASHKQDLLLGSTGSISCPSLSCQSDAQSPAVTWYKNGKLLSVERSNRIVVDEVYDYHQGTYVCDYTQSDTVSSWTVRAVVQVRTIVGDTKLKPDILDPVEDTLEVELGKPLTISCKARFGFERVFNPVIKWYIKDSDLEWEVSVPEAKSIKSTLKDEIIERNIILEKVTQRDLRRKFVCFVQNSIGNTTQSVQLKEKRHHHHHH

B1: hzWio-02-44-hFc (bispecific antibody)
chain: EVQLLESGGGLVQPGGSLRLSCAASGYTYGPYCMGWFRQAPGKEREGVAAVGGDARTWYGNSVKGRFTISRDNSKNTLYLQMNSLRAEDTAVYYCAADFDRTVCSDDIYDYTYRGQGTLVTVSSGGGGSQVQLQESGGGSVQAGGSLRLSCVASGTTMSMNYMAWFRQAPGKEREGVASIFRSTHYADSVKGRFTIAEDSAKNTVYLQMNSLKPEDTAVYYCAAGRTKPYLTPLAESQYNYWGQGIQVTVSS[human IgG1 Fc with changes not shown]
B2: hzWio-02-29-hFc (bispecific antibody)
chain: EVQLLESGGGLVQPGGSLRLSCAASGYTYGPYCMGWFRQAPGKEREGVAAVGGDARTWYGNSVKGRFTISRDNSKNTLYLQMNSLRAEDTAVYYCAADFDRTVCSDDIYDYTYRGQGTLVTVSSGGGGSEVQLVESGGGLVQPGGSLRLSCAASGTAYDNACMGWFRQAPGKEREGVASIHLRDRTYYADSVKGRFTISRDNSKNTLYLQMNSLRAEDTAVYYCASSNICNALNLQGNTYWGQGTLVTVSS[human IgG1 Fc with changes not shown]
B3: hzWio-02-31-hFc (bispecific antibody)
chain: EVQLVESGGGLVQPGGSLRLSCAASGFTYIPAYMGWFRQAPGKERERVASISSTEGSTTYADSVKGRFTISQDNSKNTLYLQMNSLRPEDTAVYYCAAYQFGAFRVWGQGTLVTVSSGGGGSEVQLVESGGGLVQPGGSLRLSCAASGFTVHDMGWYRQAPGKECELVSTISSDASTYYADSVKGRFTISRDNAKNTLYLQMNSLRAEDTAVYYCAADSFTGLQLAECKADFGYWGQGTLVTVSS[human IgG1 Fc with changes not shown]
B4: hzWio-02-30-hFc (bispecific antibody)
chain: EVQLVESGGGLVQPGGSLRLSCAASGFTYIPAYMGWFRQAPGKERERVASISSTEGSTTYADSVKGRFTISQDNSKNTLYLQMNSLRPEDTAVYYCAAYQFGAFRVWGQGTLVTVSSGGGGSEVQLVESGGGLVQPGGSLRLSCAASGSTFDEYDMGWYRQAPGGKCELVSTISTIDASTYYADSVKGRFTISRDNSKNTLYLQMNSLRAEDTAVYYCEADDRGTWDRGGCWGQGTLVTVSS[human IgG1 Fc with changes not shown]
B5: R1-C10 single-domain antibody-hFc fusion protein (Fc fusion)
chain: QVQLQESGGGSVQAGETLRLSCTASGSTFDEYDMGWYRQAPGNKCELVSTISTIDGSTYYADSVKGRFTISQDNTKNTVYLQMNSLKPEDTGVYYCEADDRGTWDRGGCWGQGTQVTVSSGS[human IgG1 Fc with changes not shown]
B6: hzR1-C7 single-domain antibody-hFc fusion protein (Fc fusion)
chain: EVQLVESGGGLVQPGGSLRLSCAASGNLYRDPCMGWFRQAPGKDREGVAAMNTGADSTFYARSVKGRFTISRDNAKNTLYLQMNSLRAEDTAVYYCAASRYCTERTYTWRYDYDYWGQGTLVTVSSGS[human IgG1 Fc with changes not shown]
B7: hzR1-A12 single-domain antibody-hFc fusion protein (Fc fusion)
chain: EVQLVESGGGLVQPGGSLRLSCAASGTAYDNACMGWFRQAPGKEREGVASIHLRDRTYYADSVKGRFTISRDNSKNTLYLQMNSLRAEDTAVYYCASSNICNALNLQGNTYWGQGTLVTVSSGS[human IgG1 Fc with changes not shown]
B8: hzR1-F9 single-domain antibody-hFc fusion protein (Fc fusion)
chain: EVQLVESGGGLVQPGGSLRLSCAASGFTVHDMGWYRQAPGKECELVSTISSDASTYYADSVKGRFTISRDNAKNTLYLQMNSLRAEDTAVYYCAADSFTGLQLAECKADFGYWGQGTLVTVSSGS[human IgG1 Fc with changes not shown]
B9: hzR1-C10 single-domain antibody-hFc fusion protein (Fc fusion)
chain: EVQLVESGGGLVQPGGSLRLSCAASGSTFDEYDMGWYRQAPGGKCELVSTISTIDASTYYADSVKGRFTISRDNSKNTLYLQMNSLRAEDTAVYYCEADDRGTWDRGGCWGQGTLVTVSSGS[human IgG1 Fc with changes not shown]
B10: R1-F9 single-domain antibody-hFc fusion protein (Fc fusion)
chain: QVQLQESGGGSVQAGETLRLSCTASGFTVHDMGWYRQAPGNECELVSTISSDGSTYYADSVKGRFTISQDNAKNTVYLQMNSLKPEDTAVYYCAADHFTGLQLAECKADFGYWGQGTQVTVSSGS[human IgG1 Fc with changes not shown]
B11: R1-C7 single-domain antibody-hFc fusion protein (Fc fusion)
chain: QVQLQESGGGPVQAEGSLRLSCTASGNLYRDPCMGWFRQAPGKDREGVAAMNTGADSTFYARSVKGRFTISHDNAKNTLYLQMNSVKPEDTAMYYCAASRYCTERTWTWRYDYDYWGQGTQVTVSSGS[human IgG1 Fc with changes not shown]
B12: R1-A12 single-domain antibody-hFc fusion protein (Fc fusion)
chain: QVQLQESGGGPVQAGGSLRLSCSASTTAYDNACMGWFRQAPGKEREGVASIHLRDRTYYADSVKGRFTLSRDGASKTLYLQMNSLKPEDSGTYYCASSNICNGLNLQGNTYWGQGTQVTVSSGS[human IgG1 Fc with changes not shown]
B13: hzRap-A10 single-domain antibody fused with human Fc at the C-terminus (Fc fusion)
chain: EVQLLESGGGLVQPGGSLRLSCAASGYTYGPYCMGWFRQAPGKEREGVAAVGGDARTWYGNSVKGRFTISRDNSKNTLYLQMNSLRAEDTAVYYCAADFDRTVCSDDIYDYTYRGQGTLVTVSS[human IgG1 Fc with changes not shown]
B14: Rap-A10 single-domain antibody fused with human Fc at the C-terminus (Fc fusion)
chain: QVQLQESGGGLVQAGGSLKLSCAASGYTYGPYCMGWFRQFPGKEREGVAAVGGDGRTWYGNSVKGRFTISQDNAKKTLYLQINALKPEDTAMYYCAADFDRTVCSDDIYDYTYRGQGTQVTVSS[human IgG1 Fc with changes not shown]
B15: Rap-C10 single-domain antibody fused with human Fc at the C-terminus (Fc fusion)
chain: QVQLQESGGGSVQPGGSLRLSCAASGFTYIPAYMGWFRQAPGKERERVASISSTDGSTTYADSVKGRFTVSQDTAKNTLYLQMNSLKPEDTAMYYCAAYQFGAFRVWGQGTQVTVSS[human IgG1 Fc with changes not shown]

The target in one test is T1, human IL-18R1 and IL-18RAP on IL-18 …. In words: cell-based or functional assay.
Molecule B1 registered a concentration giving a half-maximal response (EC50) of 4.69 ng/mL and a Top630nm of 0.301.
B2 registered an EC50 of 1.55 ng/mL and a Top630nm of 1.24.
In the same order, the values of B3 are 4.15 ng/mL and 0.39.
B4 came in with a half-maximal effective concentration (EC50) of 4.43 ng/mL and a Top630nm of 0.451.

The next test deals with T2, human IL-18R1 ECD-His. Kind of test: BLI (Octet), AHC capture, antigen 100 nM.
The molecule B5 came in with a Kd of 0.0281 nM, a koff of 0.000147 s⁻¹ and a kon of 5.22e+06 M⁻¹ s⁻¹.
Taken in the same sequence, the figures for B6 were 2.53 nM, 0.000515 s⁻¹ and 204000 M⁻¹ s⁻¹.
In the same order, the values of B7 are 2 nM, 0.00018 s⁻¹ and 90100 M⁻¹ s⁻¹.
In the same order, the values of B8 are 3.74 nM, 0.000213 s⁻¹ and 56900 M⁻¹ s⁻¹.
B9 gave a dissociation constant Kd of 1.45 nM, an off-rate (koff) of 0.000206 s⁻¹ and a kon of 142000 M⁻¹ s⁻¹.
On to B10, for which the dissociation constant Kd is 1.1 nM, the koff turned out to be 8.73e-05 s⁻¹ and the on-rate constant (kon) amounted to 79400 M⁻¹ s⁻¹.
Taken in the same sequence, the figures for B11 were 2.56 nM, 0.000537 s⁻¹ and 209000 M⁻¹ s⁻¹.
Taken in the same sequence, the figures for B12 were 2.82 nM, 0.000474 s⁻¹ and 168000 M⁻¹ s⁻¹.

Another test addresses T3, human IL-18RAP ECD-His. Kind of test: BLI (Octet), AHC capture, antigen 100 nM.
With B13, the dissociation constant (Kd) turned out to be 0.986 nM, the dissociation rate constant (koff) came to 5.04e-05 s⁻¹ and the kon amounted to 51100 M⁻¹ s⁻¹.
Taken in the same sequence, the figures for B14 were 0.53 nM, 0.000687 s⁻¹ and 1.3e+06 M⁻¹ s⁻¹.
Take B15: the Kd was 1.73 nM, the off-rate (koff) came to 0.00105 s⁻¹ and the kon came out at 606000 M⁻¹ s⁻¹.
